Hit rate of the full screen: of about 150,000 compounds, about 540 (0.36%) showed an effect of 50% or more. Some of the results follow.
What follows are compounds tested on Plasmodium falciparum (assay: Primary screen in NF54 nanoGlo assay, in single point, at 2uM, 72h; a lower Z score goes with more inhibition). Conditions: timepoint 72 hour.
Assay type: functional, Erythrocyte

Structure (SMILES) | % Inhibition [%] | Z score
COc1ccccc1-c1nc(NCCc2ccccc2)nc2nn(-c3cccc(F)c3)c(N)c12 | -1 | 0.18
c1ccn2cc(Cc3nc(C4CC4)cs3)nc2c1 | 5 | -0.54
Cc1nc(CN[C@@H](C)CC(=O)N2CCCCCC2)sc1C | -9 | 0.74
Cc1noc2ncnc(N[C@@H](C)CCc3ccccc3)c12 | -6 | 1.09
Cc1csc2ncnc(N3CC(C)OC(C4CC4)C3)c12 (configuration not stated) | -11 | 1.47
Cc1nnsc1CN(C)C(=O)c1onc2ccccc12 | -10 | 2.01
CCCn1nnnc1CN(C)Cc1nccn1C | -13 | 1.8
C[C@H]1CN(C(=O)NCc2ccc(Cl)s2)CCO1 | -8 | 1.53
O=C(Nc1cccc(-c2nc3ncccc3o2)c1)[C@@H]1OCCN(C2CC2)[C@H]1c1ccccc1 | -20 | 2.59
CCc1nccc(CN2CC[C@@H]3NC(=O)NCCNC(=O)c4cc(OCCOC)cc(c4)Oc4cccc(c4)CO[C@H]3C2)n1 | -10 | 1.23
C[C@H](Oc1ccccc1Br)C(=O)Nc1cc(-c2nccn2C)no1 | 1 | -0.1
c1ccc2c(-c3noc([C@H]4CCOC4)n3)n[nH]c2c1 | -9 | 0.95
CC(C)(C)c1ccc(S(=O)(=O)C2CS(=O)(=O)CC2N2CCN(c3ncccn3)CC2)cc1 (configuration not stated) | -6 | 0.77
CS(=O)(=O)N1C[C@H]2CC[C@@H](C1)N(C(=O)Cc1ccc(F)cc1Cl)C2 | -5 | 0.96
CN1C[C@@H](C(=O)NCC#CCOc2ccc3c(c2)OCO3)CC1=O | -21 | 2.65
COc1ccc(-c2cnc3ncnn3c2N2CCCN(S(=O)(=O)c3ccc(F)c(F)c3)CC2)cc1 | -9 | 0.9
COCc1ccc(C(=O)NCC#N)cc1OC | -4 | 0.59
CCc1ccc(C(C)(C)CN[C@H]2CCCS(=O)(=O)C2)cc1 | -7 | 0.98
CN1CCC[C@H](CNC(=O)c2ccc(F)c(COCC3CC3)c2)C1 | -11 | 1.19
CC(=O)Nc1onc(C)c1-c1ccc(C)c(S(=O)(=O)NC(C)C)c1 | 3 | -0.47
COCC(=O)N1C[C@@H](C)[C@H](c2nc(-c3ccccc3)no2)C1 | -10 | 1.2
COc1ccc2c(c1)CCN(CCn1cnnc1)CC2 | -6 | 0.65

Structure (SMILES) | % Inhibition [%] | Z score
CC1(C)NC(=O)N(CCN2CCOc3ccccc32)C1=O | -1 | 0.11
CCn1nc(Cc2cccc(Cl)c2)nc1[C@H]1CC(=O)N(C)C1(C)C | -18 | 2.09
O=C(Nc1cccc2c1CCCC2)n1ncc2cc(Cl)ccc21 | -8 | 1.24
COc1ccccc1CCNC(=O)N(C)CC1(O)CCCCCC1 | -8 | 1.19
CCc1cccc(NC(=O)CC(C)(C)C)c1 | -12 | 1.64
CC1CCCCC1NC(=O)C1c2cccn2CC(=O)N1CCc1ccc(Cl)cc1 (configuration not stated) | 9 | -1.19
O=C(c1ccco1)N1CCn2nc(C3CC3)cc2C1 | 15 | -1.94
Nc1cc(C2CCN(S(=O)(=O)Cc3ccc(F)cc3)CC2)no1 | 10 | -1.61
CC(NCC(O)CC1CCCC1)c1cnn(C)c1 (configuration not stated) | -12 | 1.51
COc1c(F)c(F)cc(C(=O)N2CC(Cn3cncn3)C2)c1F | -2 | 0.4
CC(C)CC(C)(C)C(=O)NCCS(=O)(=O)c1ccccc1F | -7 | 0.72
CC1(C)CN(C(=O)c2cnco2)c2ccc(Cl)cc21 | 3 | -0.51
O[C@@]1(C(F)F)CCN(CCOc2cc(Cl)cc(Cl)c2)C1 | -14 | 1.67
COc1cc(N[C@H]2CCCN(S(N)(=O)=O)C2)cc(OC)c1 | -6 | 0.85
CC(=O)N1CCN(C(=O)c2c(C)noc2C(C)C)CC1 | -9 | 1.32
O=C(CN1CCC2(C1)OCCO2)Nc1cccc(C(=O)NC2CC2)c1 | -14 | 1.81
COCCc1nsc(N2CCNC(=O)CCN(C(=O)[C@H](C)n3cncn3)CC2)n1 | -7 | 0.67
O=C(c1ccc(N2CCN(C(=O)c3ccccc3)CC2)cc1)c1cccc(F)c1 | -10 | 1.96
CCc1nsc(N2CCOC[C@H]2C2CC2)n1 | -4 | 0.49
CCC(CC)(OC)c1noc([C@H]2CCCOC2)n1 | -5 | 0.7
c1ccc(C(c2ccccc2)N2CCN(c3nccs3)CC2)cc1 | 6 | -0.89
COc1ncccc1C(=O)NC[C@@H](c1ccsc1)N(C)C | -1 | 0.18

Structure (SMILES) | % Inhibition [%] | Z score
Cn1nnc(CNC(=O)N2CCN(S(=O)(=O)c3ccccc3)CC2)n1 | -3 | 0.63
CN(Cc1ccncc1)Cc1ncnn1CC1CCCCC1 | -12 | 1.48
Cc1cc2cc(NS(=O)(=O)c3cccc4nsnc34)ccc2[nH]1 | -7 | 1.22
O=C(CNC(=O)OCc1ccccc1)NCc1cncc(-c2ccoc2)c1 | 18 | -2.27
C=C(C)CN(CC)C(=O)NCCc1ccc(S(N)(=O)=O)cc1 | -4 | 0.6
CCCCN(CC(=O)N(Cc1ccco1)Cc1cccn1C)C(=O)c1ccc(Cl)c(Cl)c1 | -13 | 2.26
Cc1ccc(-c2noc(C3CC3)n2)cc1-n1cc(C(=O)Nc2cccc(Cl)c2C)c(C)n1 | 2 | -0.29
O=C(Nc1ccc(C(=O)N2CCC[C@@H]2CN2CCOCC2)cc1)c1cccs1 | -7 | 1.44
CC(C)(C)c1cc(CN2CCCC[C@@H]2CC(=O)O)n[nH]1 | 3 | -0.48
CCc1ccc(CN2CCC[C@@](O)(CO)CC2)nc1 | -2 | 0.41
COc1ccc(CCOc2cc([C@@H](CC(N)=O)c3c(C)[nH][nH]c3=O)ccc2OC)cc1 | -5 | 0.61
O[C@]1(CN2CCCC2)COCCN(c2ncccc2C(F)(F)F)C1 | -11 | 1.36
COc1ccccc1OCCC(=O)N(C)C1C(C)CN(Cc2ccccc2)CC1C (configuration not stated) | -6 | 0.57
O=C(Cc1ccc(F)cc1)Nc1cnc(N2CCCCCC2)nc1 | -20 | 1.75
CN(C[C@@H]1CCCN(C(=O)Cc2ccncc2)C1)C(=O)Cc1ccncc1 | -8 | 0.94
O=C(CN1CCOC(c2cccs2)C1)NCC1CCCO1 (configuration not stated) | -3 | 0.45
CCC(CC)(CC)NC(=O)Cc1sc(CS(C)(=O)=O)nc1C | 0 | -0.01
Cc1cc(NCC(C)(C)CO)nc(N(C)C)n1 | -12 | 2.18
O=S(=O)(c1cccc(F)c1)N1CCN(Cc2nc3cccnc3[nH]2)CC1 | -1 | 0.05
Cc1cn2nc(N[C@H]3CCN(c4nccs4)C3)ccc2n1 | -10 | 1.75
O=C(Nc1ccc(Cl)cn1)c1cc(-c2ccccc2)on1 | 17 | -1.95
O=C(N[C@@H]1COCC[C@@H]1OCc1cscn1)c1cc(Cl)c[nH]c1=O | -7 | 1.33

Structure (SMILES) | % Inhibition [%] | Z score
Cc1nc(C(C)C)sc1CNC(=O)c1cccc(-n2cnnc2)n1 | -3 | 0.52
COc1cnc(C(=O)Nc2nnc(C3CC3)s2)cc1O | -1 | 0.12
O=C(CCN1CCN(Cc2ccccc2)CC1)Nc1ccc2c(c1)OCO2 | -13 | 2.24
CC(Oc1ccccc1)C(=O)N1CCC(c2ccc3c(c2)OCO3)C1 (configuration not stated) | 3 | -0.36
O=C(Cn1cc(C(F)(F)F)ccc1=O)Nc1ccccn1 | -4 | 0.53
COc1ccc(NC(=O)c2cn3c(n2)CCCC3)cc1OC | 3 | -0.43
COc1cc2c(cc1CNCc1n[nH]c(=O)[nH]1)OCO2 | 6 | -0.93
COc1ccc(-c2c(C(=O)Nc3cccc(C)c3C)nn3c(C)cc(=O)[nH]c23)cc1 | -16 | 1.9
Cc1cccc(C(=O)N2CC[C@H]3C(=O)NCCCCCCN(Cc4ccncc4)[C@@H]3C2)c1 | -13 | 1.71
Cc1cc(C)nc(O[C@H]2CC[C@H](NC(=O)c3ccc[nH]c3=O)CC2)n1 | -10 | 1.1
Cc1cc(NC(=O)N2CC[C@H](CN3CCCCC3)C2)ccc1F | -5 | 0.63
CC(C(=O)NCC(c1cccnc1)N(C)C)c1ccc(Cl)s1 (configuration not stated) | -2 | 0.28
FC(F)(F)c1ccc(CC2CNC2)cc1 | 5 | -0.72
O=C(NC[C@H]1OCCc2ccccc21)c1ccco1 | -2 | 0.23
Cc1nnc([C@@H]2CCCN2C(=O)CCc2ccccc2)[nH]1 | -11 | 1.33
COC(=O)C(C)(C)CNC(=O)NC1CCOC(C(C)C)C1 (configuration not stated) | -15 | 2.44
CC(C)(C)Cc1cc(NC(=O)C2CC3CCC2O3)[nH]n1 (configuration not stated) | 33 | -3.72
CCc1ccc(-n2c(CN3CCN(C(=O)NC(C)C)CC3)nc3cccnc32)cc1 | -2 | 0.35
COc1cccc(C(=O)N2C(C(=O)NC(C)c3ccccc3)COC23CCN(C(=O)c2ccccc2C)CC3)c1 (configuration not stated) | -2 | 0.29
O=C(c1cn[nH]c1)N1CCC(n2cc(-c3cc(F)cc(F)c3)nn2)CC1 | -1 | 0.11
